{"source": "paper PMC12820563", "about": "“FoxP3 forms a head-to-head dimer in vivo and stabilizes its multimerization on adjacent microsatellites”", "note": "The list shows a part of the results.", "data": [{"biological_target": "T1, MBP-FoxP1dN (Mus musculus, UniProt P58462 326-579)", "T1 sequence": "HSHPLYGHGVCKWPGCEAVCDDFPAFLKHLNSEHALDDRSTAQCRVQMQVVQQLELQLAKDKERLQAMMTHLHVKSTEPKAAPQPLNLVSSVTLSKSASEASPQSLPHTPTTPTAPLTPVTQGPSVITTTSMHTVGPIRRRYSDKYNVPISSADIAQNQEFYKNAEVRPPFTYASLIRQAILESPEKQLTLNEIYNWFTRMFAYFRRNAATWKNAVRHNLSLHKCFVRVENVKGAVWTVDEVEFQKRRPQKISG", "test": "PD-seq (MBP pull-down with sequencing); 20 mM Tris-HCl pH 7.5, 100 mM NaCl, 1.5 mM MgCl2, 0.4 uM protein, 0.1 uM dsDNA library, 30 min, room temperature, amylose pull-down; high values mean tight binding", "conditions": "protein: recombinant; tags: His6-MBP; chain copies: 2; dsDNA, one strand shown", "summary_of_the_method": "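Binding is the reads-per-million enrichment of pull-down relative to input, pooled across replicates. For this, 0.4 µM His6-MBP-tagged mouse FoxP3 or FoxP1 fragment lacking the N-terminus, made in E. coli, was incubated with 0.1 µM Klenow-filled double-stranded degenerate DNA library for 30 min at room temperature in Tris pH 7.5 buffer with NaCl and MgCl2. Complexes bound to amylose resin were washed three times before proteinase K released the DNA for PCR barcoding and Illumina sequencing.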", "values": [{"sequence": "GATGATTGTTCTCCCAGCTGATGAATTCCGTGGCTCGAGTAAACAAATTTTCCTAATCTTTCTGTTCAAGCGCCATCTAC", "binding signal": "0.767 RPM ratio (pull-down/input)"}, {"sequence": "GATGATTGTTCTCCCAGCTGATGAATTTATAACGTCGAGTAAACAAATTTTCCTAATCTTTCTGTTCAAGCGCCATCTAC", "binding signal": "1.14 RPM ratio (pull-down/input)"}, {"sequence": "GATGATTGTTCTCCCAGCTGATGAATTCAGGGCCTCGAGTAAACAAATTTTCCTAATCTTTCTGTTCAAGCGCCATCTAC", "binding signal": "0.863 RPM ratio (pull-down/input)"}, {"sequence": "GATGATTGTTCTCCCAGCTGATGAATTCACACCTTCGAGTAAACAAATTTTCCTAATCTTTCTGTTCAAGCGCCATCTAC", "binding signal": "0.864 RPM ratio (pull-down/input)"}, {"sequence": "GATGATTGTTCTCCCAGCTGATGAATTCACTGGCTCGAGTAAACAAATTTTCCTAATCTTTCTGTTCAAGCGCCATCTAC", "binding signal": "0.81 RPM ratio (pull-down/input)"}, {"sequence": "GATGATTGTTCTCCCAGCTGATGAATTAGCCGGATCGAGTAAACAAATTTTCCTAATCTTTCTGTTCAAGCGCCATCTAC", "binding signal": "0.832 RPM ratio (pull-down/input)"}, {"sequence": "GATGATTGTTCTCCCAGCTGATGAATTACGGCAATCGAGTAAACAAATTTTCCTAATCTTTCTGTTCAAGCGCCATCTAC", "binding signal": "1.13 RPM ratio (pull-down/input)"}, {"sequence": "GATGATTGTTCTCCCAGCTGATGAATTTCACTAGTCGAGTAAACAAATTTTCCTAATCTTTCTGTTCAAGCGCCATCTAC", "binding signal": "0.76 RPM ratio (pull-down/input)"}, {"sequence": "GATGATTGTTCTCCCAGCTGATGAATTACTAGGGTCGAGTAAACAAATTTTCCTAATCTTTCTGTTCAAGCGCCATCTAC", "binding signal": "0.919 RPM ratio (pull-down/input)"}, {"sequence": "GATGATTGTTCTCCCAGCTGATGAATTTGGCCCCTCGAGTAAACAAATTTTCCTAATCTTTCTGTTCAAGCGCCATCTAC", "binding signal": "0.832 RPM ratio (pull-down/input)"}, {"sequence": "GATGATTGTTCTCCCAGCTGATGAATTTTGAATATCGAGTAAACAAATTTTCCTAATCTTTCTGTTCAAGCGCCATCTAC", "binding signal": "1.07 RPM ratio (pull-down/input)"}, {"sequence": "GATGATTGTTCTCCCAGCTGATGAATTGATGTCATCGAGTAAACAAATTTTCCTAATCTTTCTGTTCAAGCGCCATCTAC", "binding signal": "1.47 RPM ratio (pull-down/input)"}, {"sequence": "GATGATTGTTCTCCCAGCTGATGAATTATCTAATTCGAGTAAACAAATTTTCCTAATCTTTCTGTTCAAGCGCCATCTAC", "binding signal": "1.06 RPM ratio (pull-down/input)"}, {"sequence": "GATGATTGTTCTCCCAGCTGATGAATTAGGGTCCTCGAGTAAACAAATTTTCCTAATCTTTCTGTTCAAGCGCCATCTAC", "binding signal": "0.785 RPM ratio (pull-down/input)"}, {"sequence": "GATGATTGTTCTCCCAGCTGATGAATTTCTCTAATCGAGTAAACAAATTTTCCTAATCTTTCTGTTCAAGCGCCATCTAC", "binding signal": "1.09 RPM ratio (pull-down/input)"}, {"sequence": "GATGATTGTTCTCCCAGCTGATGAATTATTCTCTTCGAGTAAACAAATTTTCCTAATCTTTCTGTTCAAGCGCCATCTAC", "binding signal": "1.14 RPM ratio (pull-down/input)"}, {"sequence": "GATGATTGTTCTCCCAGCTGATGAATTAGAAGGGTCGAGTAAACAAATTTTCCTAATCTTTCTGTTCAAGCGCCATCTAC", "binding signal": "0.915 RPM ratio (pull-down/input)"}, {"sequence": "GATGATTGTTCTCCCAGCTGATGAATTGGTGACGTCGAGTAAACAAATTTTCCTAATCTTTCTGTTCAAGCGCCATCTAC", "binding signal": "0.991 RPM ratio (pull-down/input)"}, {"sequence": "GATGATTGTTCTCCCAGCTGATGAATTTATGGTCTCGAGTAAACAAATTTTCCTAATCTTTCTGTTCAAGCGCCATCTAC", "binding signal": "1.03 RPM ratio (pull-down/input)"}, {"sequence": "GATGATTGTTCTCCCAGCTGATGAATTAATACTCTCGAGTAAACAAATTTTCCTAATCTTTCTGTTCAAGCGCCATCTAC", "binding signal": "0.985 RPM ratio (pull-down/input)"}, {"sequence": "GATGATTGTTCTCCCAGCTGATGAATTCCTTTTGTCGAGTAAACAAATTTTCCTAATCTTTCTGTTCAAGCGCCATCTAC", "binding signal": "0.864 RPM ratio (pull-down/input)"}, {"sequence": "GATGATTGTTCTCCCAGCTGATGAATTTTCTTGATCGAGTAAACAAATTTTCCTAATCTTTCTGTTCAAGCGCCATCTAC", "binding signal": "0.94 RPM ratio (pull-down/input)"}, {"sequence": "GATGATTGTTCTCCCAGCTGATGAATTACGGGCCTCGAGTAAACAAATTTTCCTAATCTTTCTGTTCAAGCGCCATCTAC", "binding signal": "0.904 RPM ratio (pull-down/input)"}, {"sequence": "GATGATTGTTCTCCCAGCTGATGAATTAAAATGTTCGAGTAAACAAATTTTCCTAATCTTTCTGTTCAAGCGCCATCTAC", "binding signal": "0.98 RPM ratio (pull-down/input)"}, {"sequence": "GATGATTGTTCTCCCAGCTGATGAATTGGCGGGGTCGAGTAAACAAATTTTCCTAATCTTTCTGTTCAAGCGCCATCTAC", "binding signal": "0.738 RPM ratio (pull-down/input)"}, {"sequence": "GATGATTGTTCTCCCAGCTGATGAATTGGTAAAATCGAGTAAACAAATTTTCCTAATCTTTCTGTTCAAGCGCCATCTAC", "binding signal": "1.1 RPM ratio (pull-down/input)"}, {"sequence": "GATGATTGTTCTCCCAGCTGATGAATTTCCATTCTCGAGTAAACAAATTTTCCTAATCTTTCTGTTCAAGCGCCATCTAC", "binding signal": "0.823 RPM ratio (pull-down/input)"}, {"sequence": "GATGATTGTTCTCCCAGCTGATGAATTTGGGACGTCGAGTAAACAAATTTTCCTAATCTTTCTGTTCAAGCGCCATCTAC", "binding signal": "0.892 RPM ratio (pull-down/input)"}, {"sequence": "GATGATTGTTCTCCCAGCTGATGAATTGTTGAGGTCGAGTAAACAAATTTTCCTAATCTTTCTGTTCAAGCGCCATCTAC", "binding signal": "1.03 RPM ratio (pull-down/input)"}, {"sequence": "GATGATTGTTCTCCCAGCTGATGAATTATATCGTTCGAGTAAACAAATTTTCCTAATCTTTCTGTTCAAGCGCCATCTAC", "binding signal": "1.07 RPM ratio (pull-down/input)"}, {"sequence": "GATGATTGTTCTCCCAGCTGATGAATTTGGTACATCGAGTAAACAAATTTTCCTAATCTTTCTGTTCAAGCGCCATCTAC", "binding signal": "1.15 RPM ratio (pull-down/input)"}, {"sequence": "GATGATTGTTCTCCCAGCTGATGAATTCAAACCGTCGAGTAAACAAATTTTCCTAATCTTTCTGTTCAAGCGCCATCTAC", "binding signal": "0.855 RPM ratio (pull-down/input)"}, {"sequence": "GATGATTGTTCTCCCAGCTGATGAATTATACCCTTCGAGTAAACAAATTTTCCTAATCTTTCTGTTCAAGCGCCATCTAC", "binding signal": "0.942 RPM ratio (pull-down/input)"}, {"sequence": "GATGATTGTTCTCCCAGCTGATGAATTCCGTAAGTCGAGTAAACAAATTTTCCTAATCTTTCTGTTCAAGCGCCATCTAC", "binding signal": "0.864 RPM ratio (pull-down/input)"}, {"sequence": "GATGATTGTTCTCCCAGCTGATGAATTTTACAATTCGAGTAAACAAATTTTCCTAATCTTTCTGTTCAAGCGCCATCTAC", "binding signal": "0.936 RPM ratio (pull-down/input)"}, {"sequence": "GATGATTGTTCTCCCAGCTGATGAATTCGCTGACTCGAGTAAACAAATTTTCCTAATCTTTCTGTTCAAGCGCCATCTAC", "binding signal": "0.87 RPM ratio (pull-down/input)"}, {"sequence": "GATGATTGTTCTCCCAGCTGATGAATTACGAGCATCGAGTAAACAAATTTTCCTAATCTTTCTGTTCAAGCGCCATCTAC", "binding signal": "1.17 RPM ratio (pull-down/input)"}, {"sequence": "GATGATTGTTCTCCCAGCTGATGAATTACGTTCGTCGAGTAAACAAATTTTCCTAATCTTTCTGTTCAAGCGCCATCTAC", "binding signal": "0.986 RPM ratio (pull-down/input)"}, {"sequence": "GATGATTGTTCTCCCAGCTGATGAATTACCCTTCTCGAGTAAACAAATTTTCCTAATCTTTCTGTTCAAGCGCCATCTAC", "binding signal": "0.941 RPM ratio (pull-down/input)"}, {"sequence": "GATGATTGTTCTCCCAGCTGATGAATTAGACGCGTCGAGTAAACAAATTTTCCTAATCTTTCTGTTCAAGCGCCATCTAC", "binding signal": "0.99 RPM ratio (pull-down/input)"}]}]}
